Reference: a collection of fitness landscapes (doi:10.1126/science.1257360)
Some of the results follow.

B1: PhoQ; a variant is named by its letters at X, in order, P23837 (parent)
chain: MKKLLRLFFPLSLRVRFLLATAAVVLVLSLAYGMVALIGYSVSFDKTTFRLLRGESNLFYTLAKWENNKLHVELPENIDKQSPTMTLIYDENGQLLWAQRDVPWLMKMIQPDWLKSNGFHEIEADVNDTSLLLSGDHSIQQQLQEVREDDDDAEMTHSVAVNVYPATSRMPKLTIVVVDTIPVELKSSYMVWSWFIYVLSANLLLVIPLLWVAAWWSLRPIEALAKEVRELEEHNRELLNPATTRELTSLVRNLNRLLKSERERYDKYRTTLTDLTHSLKTPLXXLQXXLRSLRSEKMSVSDAEPVMLEQISRISQQIGYYLHRASMRGGTLLSRELHPVAPLLDNLTSALNKVYQRKGVNISLDISPEISFVGEQNDFVEVMGNVLDNACKYCLEFVEISARQTDEHLYIVVEDDGPGIPLSKREVIFDRGQRVDTLRPGQGVGLAVAREITEQYEGKIVAGESMLGGARMEVIFGRQHSAPKDE

Variants of: B1
Experiment: enrichment ratio after two sorts for PhoP signalling (ratio (wild type AVST 3.29)); higher = more functional
Settings: with PhoP (E. coli)

Row | Variant | enrichment ratio
1 | WNCG | ≤ 0.25
2 | QTRT | ≤ 0.25
3 | DVGM | ≤ 0.25
4 | GSRI | ≤ 0.25
5 | HEQS | ≤ 0.25
6 | WSDI | ≤ 0.25
7 | SHTA | ≤ 0.25
8 | PCEE | ≤ 0.25
9 | KHLG | ≤ 0.25
10 | VIVI | ≤ 0.25
11 | YCNM | ≤ 0.25
12 | HPAK | ≤ 0.25
13 | LKDK | ≤ 0.25
14 | NSRD | ≤ 0.25
15 | LSSH | ≤ 0.25
16 | WCFG | ≤ 0.25
17 | QDIK | ≤ 0.25
18 | SYYF | ≤ 0.25
19 | ITKG | ≤ 0.25
20 | QMVF | ≤ 0.25
21 | DVLD | ≤ 0.25
22 | TFMT | ≤ 0.25
23 | KIQT | ≤ 0.25
24 | ARHS | ≤ 0.25

Row | Variant | enrichment ratio
25 | KMPE | ≤ 0.25
26 | GYWQ | ≤ 0.25
27 | KHAL | ≤ 0.25
28 | VYWH | ≤ 0.25
29 | HDCD | ≤ 0.25
30 | AMRP | ≤ 0.25
31 | LEHS | ≤ 0.25
32 | WWDF | ≤ 0.25
33 | SDAY | ≤ 0.25
34 | NWFE | ≤ 0.25
35 | FRHN | ≤ 0.25
36 | TNEG | ≤ 0.25
37 | AREG | ≤ 0.25
38 | MSQV | ≤ 0.25
39 | ETYH | ≤ 0.25
40 | RFCH | ≤ 0.25
41 | IFNY | ≤ 0.25
42 | PPYQ | ≤ 0.25
43 | VCLK | ≤ 0.25
44 | PFVT | ≤ 0.25
45 | WLLH | ≤ 0.25
46 | FYVT | ≤ 0.25
47 | TERV | ≤ 0.25
48 | ETTW | ≤ 0.25

Row | Variant | enrichment ratio
49 | CPSY | ≤ 0.25
50 | HMVN | ≤ 0.25
51 | RAEL | ≤ 0.25
52 | MTII | ≤ 0.25
53 | FTNL | ≤ 0.25
54 | PAWK | ≤ 0.25
55 | GHTA | ≤ 0.25
56 | RGLR | ≤ 0.25
57 | ICHI | ≤ 0.25
58 | THPY | ≤ 0.25
59 | VGLF | 0.598
60 | LQHL | ≤ 0.25
61 | ANNQ | 5.32
62 | YCYN | ≤ 0.25
63 | IWWP | ≤ 0.25
64 | LATV | ≤ 0.25
65 | PYSY | ≤ 0.25
66 | TWFV | ≤ 0.25
67 | TCHG | 6.13
68 | PHNF | ≤ 0.25
69 | NGYY | ≤ 0.25
70 | KEIF | ≤ 0.25
71 | FVWK | ≤ 0.25
72 | PFYA | ≤ 0.25

Row | Variant | enrichment ratio
73 | MCAW | ≤ 0.25
74 | TIEF | 6.64
75 | FWQQ | ≤ 0.25
76 | MQPN | ≤ 0.25
77 | GLER | ≤ 0.25
78 | KYSY | ≤ 0.25
79 | EYNG | ≤ 0.25
80 | NFYE | ≤ 0.25
81 | YNNH | ≤ 0.25
82 | DQIK | ≤ 0.25
83 | KYDA | ≤ 0.25
84 | TIQQ | 16.4
85 | RKPH | ≤ 0.25
86 | HWVP | ≤ 0.25
87 | KPTT | ≤ 0.25
88 | RAII | ≤ 0.25
89 | IIKM | ≤ 0.25
90 | SDRE | ≤ 0.25
91 | IYCG | ≤ 0.25
92 | EVVW | ≤ 0.25
93 | HWHQ | ≤ 0.25
94 | MFHQ | 0.658
95 | KESG | ≤ 0.25
96 | ETWV | ≤ 0.25

Row | Variant | enrichment ratio
97 | WRIH | ≤ 0.25
98 | QTWP | ≤ 0.25
99 | LQAG | ≤ 0.25
100 | TYFE | ≤ 0.25
101 | GYDL | ≤ 0.25
102 | MTYA | ≤ 0.25
103 | PEIN | ≤ 0.25
104 | DMWP | ≤ 0.25
105 | DRGK | ≤ 0.25
106 | FCMF | 0.805
107 | SMYF | ≤ 0.25
108 | PYRC | ≤ 0.25
109 | NRCQ | ≤ 0.25
110 | IQER | ≤ 0.25
111 | QLAD | ≤ 0.25
112 | GGAG | ≤ 0.25
113 | CSTS | ≤ 0.25
114 | GIWH | 4.21
115 | NTCI | ≤ 0.25
116 | KPNM | ≤ 0.25
117 | EPDI | ≤ 0.25
118 | SSMG | 10.3
